From patent US7592316B2, “Peptides as NS3-serine protease inhibitors of hepatitis C virus” (Schering Corporation, priority 2000, dated 2009)
*1 amine or outer side, *2 acyl side, *3 side chain or, on linkers, in order; H or OH if unused. Where a SMILES comes first, the peptide text is derived from it. [ ]: non-standard residue; d: D form. The star is where a group is joined. ξ: configuration not given here. Pro(3R,4S-CMe2) = CC1(C)[C@@H]2[C@@H](C(=O)O)NC[C@@H]21; Pro(4R-isopentyl) = CC(C)CC[C@H]1CN[C@H](C(=O)O)C1; Nleψ(COCO) = CCCC[C@H](N[*:1])C(=O)C(=O)[*:2]; X81 = O=C(C(=O)[*:2])C(CCC(F)F)N[*:1]; X84 = O=C(C(=O)[*:2])C(CC1COC1)N[*:1]; X4 = CCCCC(N[*:1])C(=O)C(=O)[*:2]; Chg = N[C@H](C(=O)O)C1CCCCC1; Phg = N[C@H](C(=O)O)c1ccccc1; Tle = CC(C)(C)[C@H](N)C(=O)O; ξPhg = NC(C(=O)O)c1ccccc1; Boc = CC(C)(C)OC(=O)*

These compounds were tested against HCV NS3/NS4A protease (strain 1a) (Hepatitis C virus genotype 1a, UniProt P27958) (assay: biochemical). Conditions: Table 5; HCV NS3/NS4A protease, spectrophotometric assay, 30° C., pH 6.5; read-out: Ki* Range.

| Structure (SMILES) | Ki |
| --- | --- |
| CN(C)C(=O)C(NC(=O)CNC(=O)C(=O)C(CC1CC1)NC(=O)[C@@H]1[C@H]2[C@@H](CN1C(=O)[C@@H](NC(=O)OC(C)(C)C)C(C)(C)C)C2(Cl)Cl)c1ccccc1 (some centres unmarked) | 1 to 100 nM |
| CCCCC(NC(=O)[C@@H]1C[C@@H](CCC(C)C)CN1C(=O)[C@@H](NC(=O)OC(C)(C)C)C(C)(C)C)C(=O)C(=O)NCC(=O)NC(C(=O)N(C)C)c1ccccc1 (stereo partly drawn) (Boc-[Tle][Pro(4R-isopentyl)][X4]G[ξPhg]-NMe2) | 101 to 1000 nM |
| C=CCC(NC(=O)[C@@H]1[C@@H]2[C@H](CN1C(=O)[C@@H](NC(=O)OC(C)(C)C)C(C)(C)C)C2(C)C)C(=O)C(=O)NCC(=O)NCc1cccnc1 (some centres unmarked) | 101 to 1000 nM |
| CCCCC(NC(=O)[C@@H]1[C@H]2OC(C)(C)O[C@H]2CN1C(=O)[C@@H](NC(=O)OC(C)(C)C)C(C)(C)C)C(=O)C(=O)NCC(=O)NC(C(=O)N(C)C)c1ccccc1 (some centres unmarked) | 101 to 1000 nM |
| CCCC(NC(=O)[C@@H]1[C@H]2[C@@H](CN1C(=O)C(NC(=O)OC(C)(C)C)C(C)(C)C)C2(C)C)C(=O)C(=O)NCC1CC1c1ccccc1 (some centres unmarked) | > 1000 nM |
| CCCC[C@H](NC(=O)[C@@H]1C[C@@H](CCC(C)C)CN1C(=O)[C@@H](NC(=O)OC(C)(C)C)C(C)(C)C)C(=O)C(=O)NCC(=O)NC(C(=O)N(C)C)c1ccccc1 (stereo partly drawn) (Boc-[Tle][Pro(4R-isopentyl)][Nleψ(COCO)]G[ξPhg]-NMe2) | 101 to 1000 nM |

Results, then the compound that gave them:

| Ki | Structure (SMILES) |
| --- | --- |
| 101 to 1000 nM | CCCC(NC(=O)[C@@H]1[C@@H]2[C@H](CN1C(=O)[C@@H](NC(=O)OC(C)(C)C)C(C)(C)C)C2(C)C)C(=O)C(=O)NCc1cccs1 (some centres unmarked) |
| 101 to 1000 nM | C=CCNC(=O)C(=O)C(CCC)NC(=O)[C@@H]1[C@H]2[C@@H](CN1C(=O)[C@@H](NC(=O)OC(CC)CC)C1CCCC1)C2(C)C (some centres unmarked) |
| > 1000 nM | C=CCCC(NC(=O)[C@@H]1[C@H]2[C@@H](CN1C(=O)C(CC1CCCCC1)NC(=O)OC(C)(C)C)C2(C)C)C(=O)C(=O)NCC=C (some centres unmarked) |
| > 1000 nM | CCC(NC(=O)[C@@H]1[C@@H]2[C@H](CN1C(=O)[C@@H](NC(=O)OC(C)(C)C)C(C)(C)C)C2(C)C)C(=O)C(=O)OC (some centres unmarked) |
| > 1000 nM | CCC(NC(=O)[C@@H]1[C@@H]2[C@H](CN1C(=O)[C@@H](NC(=O)OC(C)(C)C)C1CCCCC1)C2(C)C)C(=O)C(=O)OC (some centres unmarked) |

Same assay, conditions: Table 6; HCV NS3/NS4A protease, 30° C., pH 6.5; read-out: Ki*

| Structure (SMILES) | Ki |
| --- | --- |
| CC(C)(C)NC(=O)N[C@H](C(=O)N1C[C@@H]2OC(C)(C)O[C@@H]2[C@H]1C(=O)NC(CC1CCC1)C(=O)C(N)=O)C(C)(C)C (some centres unmarked) | 101 to 1000 nM |
| CN(C)C(=O)[C@@H](NC(=O)CNC(=O)C(=O)C(CCC(F)F)NC(=O)[C@@H]1[C@H]2CC(C)(C)O[C@H]2CN1C(=O)[C@@H](NC(=O)OC(C)(C)C)C1CCCCC1)c1ccccc1 (some centres unmarked) | 1 to 100 nM |
| CC(C)(C)OC(=O)N[C@H](C(=O)N1C[C@H]2[C@@H]([C@H]1C(=O)NC(CCC(F)F)C(=O)C(N)=O)C2(C)C)C(C)(C)C (some centres unmarked) | 101 to 1000 nM |
| CN(C)C(=O)[C@@H](NC(=O)CNC(=O)C(=O)C(CCC(F)F)NC(=O)[C@@H]1[C@@H]2[C@H](CN1C(=O)[C@@H](NC(=O)OC(C)(C)C)C1CCCCC1)C2(C)C)c1ccccc1 (stereo partly drawn) (Boc-[Chg][Pro(3R,4S-CMe2)][X81]G[Phg]-NMe2) | 1 to 100 nM |
| CN(C)C(=O)[C@@H](NC(=O)CNC(=O)C(=O)C(CC1COC1)NC(=O)[C@@H]1[C@@H]2[C@H](CN1C(=O)[C@@H](NC(=O)OC(C)(C)C)C1CCCCC1)C2(C)C)c1ccccc1 (stereo partly drawn) (Boc-[Chg][Pro(3R,4S-CMe2)][X84]G[Phg]-NMe2) | 1 to 100 nM |
| C=CCNC(=O)C(=O)C(CC(F)(F)F)NC(=O)[C@@H]1[C@@H]2[C@H](CN1C(=O)[C@@H](NC(=O)OC(C)(C)C)C(C)(C)C)C2(C)C (some centres unmarked) | 101 to 1000 nM |

Results, then the compound that gave them:

| Ki | Structure (SMILES) |
| --- | --- |
| 1 to 100 nM | C[C@@H](NC(=O)N[C@H](C(=O)N1C[C@H]2C([C@H]1C(=O)NC(CC1CC1)C(=O)C(N)=O)C2(C)C)C(C)(C)C)C(C)(C)C (some centres unmarked) |
| 1 to 100 nM | COC(=O)C(C)(C)NC(=O)N[C@H](C(=O)N1C[C@H]2[C@@H]([C@H]1C(=O)NC(CC1CCC1)C(=O)C(N)=O)C2(Cl)Cl)C(C)(C)C (some centres unmarked) |
| 101 to 1000 nM | CC(C)(OC(=O)N[C@H](C(=O)N1C[C@H]2[C@@H]([C@H]1C(=O)NC(CC1CCC1)C(=O)C(N)=O)C2(Cl)Cl)C1CCCCC1)C(F)(F)F (some centres unmarked) |
| 1 to 100 nM | COC[C@@H](NC(=O)N[C@H](C(=O)N1C[C@@H]2OC(C)(C)C[C@@H]2[C@H]1C(=O)NC(CC1CC1)C(=O)C(=O)NCC(=O)NC(C(=O)N(C)C)c1ccccc1)C1CCCCC1)C(C)(C)C (some centres unmarked) |
| 1 to 100 nM | COC(=O)C(C)(C)NC(=O)N[C@H](C(=O)N1C[C@H]2[C@@H]([C@H]1C(=O)NC(CC1CCC1)C(=O)C(N)=O)C2(Cl)Cl)C1CCCCC1 (some centres unmarked) |
| 1 to 100 nM | C[C@H](NC(=O)N[C@H](C(=O)N1C[C@H]2[C@@H]([C@H]1C(=O)NC(CC1CCC1)C(=O)C(N)=O)C2(C)C)C(C)(C)C)c1ccccc1 (some centres unmarked) |
